Values joined by “and” are separate entries in the source; they are usually repeats but may differ in a detail not shown here. Identical values can stand only once.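 Five compound concentrations were applied to cells in 96-well plates for 48 hours; endpoints were derived by simple linear interpolation of the resulting dose-response curve. GI50: concentration for 50% inhibition of growth. TGI is the concentration that stops growth completely.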
These molecules were tested on NCI-H322M lung (assay: NCI anticancer screen, dose series, 48 h).
In the case of `CCC1C(=O)C(O)[C@H]2[C@@H]3C(O)CC4=CC(=O)CC[C@]4(C)[C@H]3CC[C@]12C` (stereo partly specified), the TGI is reported as > 50 µM.
`O=C(NN=C1CCCCC1)c1[nH]c2ccc(F)cc2c1-c1ccccc1` was tested, and the GI50 was > 100 µM and the TGI was > 100 µM.
For `CC(O)C1(CNc2cc(Cl)nc(N)n2)CC(CCc2ccccc2)C1` (stereo unspecified), the TGI was 27.5 µM.
`Cc1ccc2c(=O)cc(-c3ccsc3)[nH]c2n1` was tested, and the TGI was > 100 µM.
`O=c1c2cc([N+](=O)[O-])ccc2n2n1CCCC2` was tested, and the TGI was > 100 µM.
For `O=C(/C=C/c1ccccc1)N1CCCCC1`, the TGI was > 100 µM.
In the case of `Nc1nc(Nc2ccccc2)sc1C(=O)c1cccs1`, the TGI is reported as 27.9 µM.
`NC(N)=NS(=O)(=O)c1ccc(Nc2c3ccccc3nc3c(C(=O)Nc4ccc(S(N)(=O)=O)cc4)ccc(Cl)c23)cc1` was tested, and the TGI was > 100 µM.
For `O=c1oc(=O)c2oc3ccccc3oc1=2`, the TGI was > 100 µM.
For `CCOC(=O)C(NCc1cccc(C(F)(F)F)c1)(NC(=O)CC)C(F)(F)F` (stereo unspecified), the TGI was > 100 µM.
In the case of `COC1CC(NC(=O)C(F)(F)F)C(OC(C)=O)C(C)O1` (stereo unspecified), the TGI is reported as > 100 µM.
In the case of `CC(=O)OCC(OC(C)=O)C(OC(C)=O)C(OC(C)=O)C(C=NN(C(C)=O)S(=O)(=O)c1ccc(/C=C2\NC(=O)NC2=O)cc1)OC(C)=O` (stereo unspecified), the TGI is reported as > 100 µM.
`C[C@H](CCCNCCCNCCCN)[C@H]1CC[C@H]2[C@@H]3[C@H](OCCCN)C[C@H]4C[C@H](OCCCN)CC[C@]4(C)[C@H]3C[C@H](OCCCN)[C@]12C` showed a GI50 of 2.1 µM and a TGI of 30.7 µM.
With `COc1ccc(-n2c(N)c(C#N)c(C#N)c2-c2ccccc2)cc1` the TGI was > 100 µM.
`CCOC(=O)c1ccc(NC(=O)SCCC(=O)O)cc1` was tested, and the TGI was > 100 µM.
With `O=C(Nc1ccc(Cl)c(Cl)c1)N1N=C2c3ccccc3CCC2C1c1ccc(Cl)cc1` (stereo unspecified) the TGI was > 100 µM.
In the case of `O=C1CC(O)(c2ccccc2)C(c2ccccc2)=C1c1ccccc1` (stereo unspecified), the TGI is reported as > 100 µM.
For `CC[C@@]1(O)C(=O)OCc2c1cc1n(c2=O)Cc2c-1nc1cc3c(cc1c2C)OCO3`, the GI50 was 0.00151 µM and the TGI was 29.7 µM.
For `COc1cc(/C=C2\C(=O)N(C(=O)c3ccc(NC(C)=O)cc3)N=C2C)ccc1O`, the TGI was > 100 µM.
`O=c1[nH]cnc2c1ncn2[C@@H]1C[C@H]1CO` was tested, and the TGI was > 100 µM.
In the case of `COc1cccc2c1c(C1=C(c3cn(C)c4ccccc34)C(=O)NC1=O)cn2C`, the GI50 is reported as > 25 µM and the TGI is reported as > 25 µM.
`O=C(NO)c1ccc(Cn2c(=O)n(-c3ccccc3F)c(=O)c3ccccc32)cc1` showed a GI50 of 2.33 µM and a TGI of 8.88 µM.
For `c1ccc(C(=NNc2cnc3ccccc3n2)c2ccccn2)cc1`, the TGI was > 51.5 µM.
In the case of `Cc1cc(O)cc(C)c1/C=C/c1cncc(-c2nn[nH]n2)c1`, the GI50 is reported as > 25 µM and the TGI is reported as > 25 µM.
In the case of `COc1ccc2[nH]cc(CCNC(=O)[C@](O)(Cc3cn(C)c4ccccc34)[C@@]3(O)OCC(O)C3O)c2c1` (stereo partly specified), the TGI is reported as > 100 µM.
In the case of `O=S(O)CCCSSc1ccccc1`, the TGI is reported as > 100 µM.
With `O=[N+]([O-])c1c(C=Nc2ccccc2)oc(-c2ccc3c(c2)OCO3)c1-c1ccc2c(c1)OCO2` the TGI was > 100 µM.
For `O=c1[nH]cnc2c1CCCN2`, the TGI was > 100 µM.
`NCCN1C(=O)C2C3c4ccccc4C(c4ccccc43)C2C1=O` (stereo unspecified) was tested, and the TGI was > 100 µM.
For `Cc1ncsc1-c1ccc(CNC(=O)[C@@H]2C[C@@H](O)CN2C(=O)[C@@H](NC(=O)C2(C#N)CC2)C(C)(C)C)cc1`, the GI50 was > 100 µM and the TGI was > 100 µM.
With `N#C/C(=C/Sc1ccccc1)C(=O)O` the TGI was > 100 µM.
For `COc1ccc(/C(CC2OC(=O)c3ccccc32)=N\NC(=O)C[N+](C)(C)C)cc1` (stereo unspecified), the TGI was > 100 µM.
`C[n+]1ccc(-c2c3nc(c(-c4cc[n+](C)cc4)c4ccc([n-]4)c(-c4cc[n+](C)cc4)c4nc(c(-c5cc[n+](C)cc5)c5ccc2[n-]5)C=C4)C=C3)cc1.[I-].[Zn+2]` was tested, and the GI50 was 32.2 µM and the TGI was 74.8 µM.
For `Cc1ccc(/C=C2\Cc3cccc(C)c3C2=O)c(C(=O)O)c1`, the TGI was > 100 µM.
For `COc1cc(-c2ncn(/C=C\C(=O)OC(C)C)n2)cc(C(F)(F)F)c1`, the GI50 was 0.253 µM and 0.219 µM and the TGI was 5.14 µM and 11.2 µM.
In the case of `COC1O[C@H]2[C@H]3[C@@H]1[C@@H](OS(=O)(=O)c1ccc(C)cc1)C(=O)N3C[C@H]2O` (stereo partly specified), the TGI is reported as > 100 µM.
In the case of `COc1cc(-c2nn(-c3cccc(NC(=O)c4ccc(N5CCOCC5)c(C(F)(F)F)c4)c3)cc2-c2ccncc2)ccc1Cl`, the GI50 is reported as 0.553 µM and the TGI is reported as 97.1 µM.
For `CCOC(=O)C(C)(C)C(O)C(C)C` (stereo unspecified), the TGI was > 100 µM.
`CC(=O)O[C@H]1C(=O)[C@@]2(C)[C@H]([C@H](OC(=O)c3ccccc3)[C@]3(O)C[C@H](OC(=O)[C@H](O)[C@@H](NC(=O)C(C)(C)C)c4ccccc4)C(C)=C1C3(C)C)[C@]1(OC(C)=O)CO[C@@H]1C[C@@H]2O` was tested, and the TGI was > 10 µM.
`Cc1cc(-c2nc3ccc(F)cc3s2)ccc1N` was tested, and the TGI was > 100 µM.
`CCOC(=O)C1=CC(C)(C(=O)OCC)Nc2c(nc(OC)[nH]c2=O)N1` (stereo unspecified) was tested, and the TGI was > 10 µM.
With `O=C(c1cc2c(c3ccccc13)NCCN=C2C(F)(F)F)C(F)(F)F` the TGI was > 100 µM.
`Cl/C(=C\C=Nc1ccc(I)cc1)c1ccc2ccccc2c1` was tested, and the TGI was > 79.4 µM.
In the case of `NC1=NCCN1CC(=O)O`, the GI50 is reported as > 10000 µM and the TGI is reported as > 10000 µM.
In the case of `CC(C)(C)OC(=O)C1CC[C@@H](CC(=O)Oc2ccc([N+](=O)[O-])cc2)N1` (stereo partly specified), the TGI is reported as > 100 µM.

Source: PubChem BioAssay (NCI)
